Reference: PubChem BioAssay AID588453 (National Center for Advancing Translational Sciences (NCATS), 2011)
Hit rate of the full screen: of about 390,000 compounds, about 4,000 (1%) were called active. Inconclusive means that the source gave no clear call. Such entries were picked first, then a sample of the others. Calls follow the shape of the dose curve; as a rule, active = well fitted inhibition curve with a large enough effect; inconclusive = small, poorly fitted or top-dose-only effect; inactive = no such curve, though single readings can be large or run the other way. Potencies beside an inconclusive call are fits to weak or partial responses and may not hold up.

What follows are molecules tested against Thioredoxin reductase 1, cytoplasmic (Rattus norvegicus) (UniProt O89049) (assay: qHTS Assay for Inhibitors of Mammalian Selenoprotein Thioredoxin Reductase 1 (TrxR1): qHTS). Conditions: recombinant rTrxR1, NADPH fluorescence consumption, selenite substrate; series mostly up to 114 µM.
UniProt O89049, sequence (O89049 whole entry, looked up): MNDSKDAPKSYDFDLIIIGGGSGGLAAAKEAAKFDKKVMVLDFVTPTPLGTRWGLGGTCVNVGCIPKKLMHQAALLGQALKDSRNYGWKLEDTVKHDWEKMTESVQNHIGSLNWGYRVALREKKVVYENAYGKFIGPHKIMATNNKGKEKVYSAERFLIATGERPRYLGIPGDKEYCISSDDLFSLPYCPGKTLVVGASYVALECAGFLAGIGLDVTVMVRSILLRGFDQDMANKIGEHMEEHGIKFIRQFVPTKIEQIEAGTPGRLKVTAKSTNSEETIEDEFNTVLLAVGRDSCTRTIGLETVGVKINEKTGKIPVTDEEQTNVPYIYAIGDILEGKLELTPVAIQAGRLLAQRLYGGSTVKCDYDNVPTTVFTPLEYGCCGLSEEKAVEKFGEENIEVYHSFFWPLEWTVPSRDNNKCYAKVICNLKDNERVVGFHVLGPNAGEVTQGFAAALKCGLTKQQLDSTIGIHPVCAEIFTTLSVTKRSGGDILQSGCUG
Summary of the method: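 Rat TrxR1 (90 nM in the dispensed reagent) was pre-reduced with 400 uM NADPH for 5 min at room temperature, then incubated with compound for 15 min. After 400 uM selenite was added, NADPH fluorescence (Ex 340/Em 450 nm) was followed for 8 min.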
Also: nearly all actives have a fitted effect of over 65% in size.
Potency is read from the fitted curve at half-maximal effect; tags tell the direction and shape of the fitted curve.

Compound | Potency
Oc1c(C(Nc2ccccn2)c2ccccc2F)ccc2cccnc12 (stereo not given) | inconclusive: 35.5 µM [inhibitor, partial curve]
CCN1CCN(C(=O)CN(c2cccc(Br)c2)S(=O)(=O)c2ccccc2)CC1 | inconclusive: 89.1 µM [inhibitor, single point]
CCN(Cc1nc(-c2ccc(OC)c(OC)c2)no1)S(=O)(=O)c1ccc(OC)cc1 | inactive
COc1cc(NC(=O)C2=C(N3CCOCC3)/C(=C\c3ccc(N(C)C)cc3)CCC2)cc(OC)c1OC | inconclusive: 79.4 µM [inhibitor, single point]
CCN(CC)C(=O)c1c(-c2ccccc2)c(-c2ccccc2)nn(CC)c1=O | inactive
CCOc1c(Cl)cc(CNc2ccc(N3CCCC3)cc2)cc1OC | active: 12.6 µM
COc1cc(-c2nc(S(=O)(=O)c3ccc(C)cc3)c(N3CCOCC3)o2)cc(OC)c1OC | inconclusive: 50.1 µM [inhibitor, partial curve, poor fit]
NNC(=O)c1n[nH]c2c1CC(C1CCCCC1)CC2 (stereo not given) | inactive
COc1cc(C2NC(C(=O)O)Cc3c2[nH]c2ccccc32)cc(OC)c1OC (stereo not given) | inactive
O=C(Nc1nnc(-c2ccc(Cl)cc2)o1)c1cccc(N2C(=O)CCC2=O)c1 | inactive
COc1ccc(N2C(=O)C(Cl)=C(Nc3ccccc3O)C2=O)cc1 | inconclusive: 79.4 µM [inhibitor, single point]
O=C(O)c1cc(N2N=C(C(F)(F)F)/C(=C/C=C/c3ccco3)C2=O)ccc1Cl | inconclusive: 14.1 µM [inhibitor, single point]
CC1CCCCC12NC(=O)N(CC(=O)c1ccc(Cl)s1)C2=O (stereo not given) | inconclusive: 89.1 µM [inhibitor, single point]
O=C(Nc1ccccc1F)c1nc(S(=O)(=O)Cc2ccccc2F)ncc1Cl | active: 1.58 µM
O=c1[nH]c2cc3c(cc2cc1CN(Cc1ccc2c(c1)OCO2)Cc1nnnn1CC1CCCO1)OCO3 (stereo not given) | inconclusive: 14.1 µM [inhibitor, partial curve, poor fit]
Cc1cccc(N2CCN(C(=O)c3ccc4nc(-c5ccco5)c(-c5ccco5)nc4c3)CC2C)c1 (stereo not given) | inconclusive: 50.1 µM [inhibitor, partial curve, poor fit]
COc1ccc2[nH]c(C)c(C(=O)CN(C)CC(OC)OC)c2c1 | inconclusive: 79.4 µM [inhibitor, single point]
Cc1c(CC(=O)O)c(=O)oc2c(C)c(OCc3ccc(F)cc3Cl)ccc12 | inconclusive: 70.8 µM [inhibitor, partial curve]
CC(=O)c1cccc(NC(=S)N2CCc3ccccc32)c1 | inconclusive: 89.1 µM [inhibitor, partial curve, poor fit]
O=C(NCCCN1CCN(c2ccccc2)CC1)c1nnc(Cc2c(F)cccc2Cl)o1 | inactive
COc1cc2nc(N3CCCCC3)nc(NC3CCN(C)CC3)c2cc1OC | inconclusive: 100 µM [inhibitor, single point]
S=c1[nH]nc(-c2ccccn2)n1/N=C/c1ccc(-c2ccccc2Br)o1 | inactive
N#Cc1cnn(-c2nc3sc4c(c3c(=O)[nH]2)CCCC4)c1N | inactive

Compound | Potency
O=C(NC(=S)Nc1ccc(N2CCOCC2)c(Cl)c1)c1cccs1 | inconclusive: 44.7 µM [inhibitor, partial curve, poor fit]
CCOc1ccc(/C=N/NC(=O)c2cc(-c3ccco3)nc3ccccc23)cc1 | inconclusive: 11.2 µM [inhibitor, full curve]
C=CC[C@@H](CC(=O)N(CCO)Cc1ccccc1)C(=O)N[C@@H](COC(=O)[C@@H](CC=C)Cc1ccc(F)cc1)Cc1c[nH]c2ccccc12 | inactive
Cc1ccc(S(=O)(=O)/N=C/c2c(O)ccc3ccccc23)cc1 | inconclusive: 50.1 µM [inhibitor, partial curve, poor fit]
O=C(NNc1c2ccccc2nc2ccccc12)c1ccccc1Cl | inactive
CC(C)c1ccc(CN2CCN(C(=O)CCl)CC2)cc1 | inconclusive: 11.2 µM [inhibitor, full curve, poor fit]
CCOc1ccc(NC(=O)c2oc3ccccc3c2NC(=O)Cc2ccc(F)cc2)cc1 | inactive
CN1C(=O)c2ccc(NC(=O)c3ccc(Cl)cc3Cl)cc2C1=O | inactive
CSc1ccc(CNC(=O)CCn2ccc3cc(S(=O)(=O)N4CCC(C)CC4)ccc32)cc1 | inactive
FC(F)(F)c1cccc(N2CCN(Cc3cccnc3)CC2)c1 | inconclusive: 3.55 µM [inhibitor, single point]
COc1cc(C(=O)O/N=C2/C=CC(=O)C(C)=C2C)cc(OC)c1OC | inconclusive: 6.31 µM [inhibitor, partial curve]
COc1ccc(C2C(C#N)=C(N)N(c3sc4c(c3C#N)CCCC4)C3=C2C(=O)CC(C)(C)C3)cc1OC (stereo not given) | inactive
COc1ccc(OCc2nc3c4cc(OC)c(OC)cc4nc(=S)n3[nH]2)cc1 | inconclusive: 10 µM [inhibitor, full curve, poor fit]
COc1ccccc1C(=O)NC(=S)Nc1cccc2cc(O)ccc12 | inconclusive: 70.8 µM [inhibitor, partial curve]
COC(=O)c1c(NC(=O)c2cc(=O)c3ccc(C)c(C)c3o2)sc2c1CCCC2 | inactive
CC(C)Cc1nc(N2CCOCC2)c(C#N)c2c1COC(C)(C)C2 | inactive
Cc1nc2ccccn2c(=O)c1CCN1CCC(C(=O)c2ccc(F)cc2)CC1 | inconclusive: 39.8 µM [inhibitor, single point]
COCCCNC(=S)NNC(=O)c1ccccn1 | inactive
Cc1cc2oc(C(=O)Nc3sc4c(c3C(=O)NCc3ccco3)CCC4)cc(=O)c2cc1C | inactive
CC1(C)OC(=O)C2(Cc3ccc(Br)cc3N3CCCCC32)C(=O)O1 (stereo not given) | inconclusive: 50.1 µM [inhibitor, partial curve]
CCCCC(=O)Nc1ccc(NC(=S)NC(=O)c2cccs2)cc1OC | inconclusive: 31.6 µM [inhibitor, partial curve]
Cc1nn2c3c(cnc2c1-c1ccccc1)C(=O)CC(c1ccco1)C3 (stereo not given) | inconclusive: 89.1 µM [inhibitor, single point]
